The other results are listed elsewhere or left out. At the low end of the ranking, values are background and their order means little.

This assay has as its target T1, GST-Rok-C97-191 (UniProt O34857).
T1 sequence: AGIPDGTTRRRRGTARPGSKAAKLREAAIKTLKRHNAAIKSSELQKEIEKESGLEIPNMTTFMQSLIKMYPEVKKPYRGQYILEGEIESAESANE
The assay is described as follows: protein binding microarray.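 Note: rank score from −0.5 (least bound) to 0.5 (best bound).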 The following applies: Rok is a gene silencer of Bacillus subtilis; high values mean tight binding; most listed sequences are background and not binding sites; double strand, one strand shown.
Sequence CCGTAAAG came in with a binding signal of -0.0699 E-score. Sequence TCATCTAA returned a binding signal of -0.0045 E-score. The result for CATGCACA reads -0.138 E-score. As for GCCGTGCC, the binding signal is -0.345 E-score. The result for AATGTTTG reads 0.0919 E-score; that for CCATATCA, 0.00206 E-score; that for AATAGCCA, -0.00528 E-score. Sequence ACATCCTC displayed a binding signal of -0.0024 E-score.

Consider ACCTTAGA, for which the binding signal was -0.0636 E-score. The result for CTAGGGTC reads -0.149 E-score; that for GGCGAGCA, -0.323 E-score. In turn, CACCGTTA gave a binding signal of 0.0219 E-score. The result for CACCCGGC reads -0.0405 E-score. Under GGGCGGGA stands -0.221 E-score; under ACCTTGCC, -0.00773 E-score; under GTGTAACA, 0.137 E-score. As to CTATATAG, the binding signal was determined as 0.413 E-score. In the case of CAAAACGG, the binding signal was -0.113 E-score. Under CCGCGCTC stands -0.261 E-score; under TGACTTAA, 0.00425 E-score; under CCGGCGTA, -0.16 E-score.

Sequence CAAGTGTG registered a binding signal of -0.0299 E-score. In the case of CGTTACTC, the binding signal was -0.113 E-score. AGCGTCCG came in with a binding signal of -0.142 E-score. For the sequence GTCTGACA, the binding signal is -0.163 E-score. The result for ACAGTTAT reads 0.255 E-score; that for GTGGTACA, 0.03 E-score; that for CAGGTACC, 0.16 E-score.

As to AACATGTT, the binding signal is -0.0625 E-score. Under AAAAGCCA stands 0.0391 E-score. Under CTTTACGA stands -0.00359 E-score; under GAGCTCCA, 0.048 E-score.

CCCCTCAA: the binding signal was -0.154 E-score. Under GAAGTACC stands 0.138 E-score. As for CGCCGCGA, the binding signal was -0.125 E-score. Sequence GCACACGA displayed a binding signal of -0.0278 E-score. On to CCCTTTAA, for which the binding signal was -0.0129 E-score. Under CAGTGGAG stands -0.197 E-score; under CCAGACAC, -0.145 E-score. CATCCAGA displayed a binding signal of -0.134 E-score. GAATGTTA registered a binding signal of 0.159 E-score. Under CGAACCTC stands -0.238 E-score. As for CGTCAGAG, the binding signal is -0.2 E-score.

On to AGGTCAAC, for which the binding signal is -0.116 E-score.

The sequence ACGTAGAT gave a binding signal of 0.219 E-score.

In the case of AAGTGCAA, the binding signal is -0.052 E-score. Sequence CATATACC came in with a binding signal of 0.222 E-score.

Take GTACGTTA: the binding signal worked out at 0.221 E-score.

In turn, ATGTTAAC gave a binding signal of 0.157 E-score. The sequence AGCGGCAG registered a binding signal of -0.3 E-score. The result for ATTCACCA reads 0.126 E-score; that for ATAGACCG, 0.139 E-score.

Take CGCAGATC: the binding signal is -0.17 E-score. The result for CTACGGAG reads 0.083 E-score. Under ATGAGTTA stands 0.222 E-score; under GCGTCTAA, -0.0779 E-score; under AAACTTGT, 0.0347 E-score. Under TGAACGAA stands 0.00482 E-score; under AGCAGGCT, -0.0665 E-score; under AAGACGCT, -0.239 E-score. For the sequence GATCGTAA, the binding signal was -0.0815 E-score. The result for ATTCTACA reads 0.382 E-score. As to ATGGAAGG, the binding signal was -0.165 E-score.

Regarding ATGACTTA, the binding signal came out at 0.024 E-score. Under GCGAGTAC stands 0.0245 E-score; under ACCTCCTG, -0.301 E-score.

Turning to GGGTGCTA, the binding signal was -0.17 E-score. The result for TAACCGCA reads 0.0332 E-score; that for TACCACAA, 0.193 E-score. The result for TCAGATCA reads -0.117 E-score.

Turning to AATTCGCA, the binding signal is 0.129 E-score.

GCGAAAGC displayed a binding signal of -0.253 E-score. The result for GTATGGAA reads -0.108 E-score; that for GTCAGAAC, 0.0868 E-score; that for AGCGTTGA, -0.0912 E-score. Under GACATCCC stands -0.332 E-score; under GTGTAGGA, -0.0878 E-score.

Consider AGACCGCA, for which the binding signal was -0.043 E-score. CCAGTACG showed a binding signal of -0.174 E-score. The result for ATCCCGAG reads -0.0929 E-score. For ATACCACG, the binding signal was 0.0833 E-score. As to AGGCCTAG, the binding signal was found to be 0.0496 E-score. Under CCGTGGTC stands -0.0945 E-score. The result for CACTGTGA reads 0.0741 E-score. In the case of AGCTTAAG, the binding signal is -0.183 E-score.

Sequence ATGTTCGA came in with a binding signal of 0.0616 E-score. Under AAGTAGTG stands 0.211 E-score.

In the case of ACGGGAGC, the binding signal was -0.351 E-score.

In turn, AAGTGGCA returned a binding signal of -0.0203 E-score.

Sequence GGGAGCCC registered a binding signal of -0.353 E-score. Under ACCAAAAG stands -0.0914 E-score; under ACATGTCG, 0.044 E-score; under AAAAAGCG, -0.0544 E-score.

Sequence AATCCAGT showed a binding signal of 0.118 E-score.

The sequence ACACTTTC returned a binding signal of 0.15 E-score. Under GCGGAGCC stands -0.301 E-score.

For the sequence CACTAAGA, the binding signal is -0.241 E-score. The result for AGGCCATA reads -0.254 E-score; that for ACCTCCAA, -0.125 E-score; that for CTGTCGTA, -0.069 E-score. ACCCCATC had a binding signal of -0.162 E-score.

Sequence CACCGGAA had a binding signal of -0.0186 E-score.

For ATAGGTTC, the binding signal came out at 0.2 E-score.

Sequence GACACGCC had a binding signal of -0.0522 E-score. The result for AAAGATCG reads -0.000347 E-score. For the sequence GAGGTAGA, the binding signal came out at 0.334 E-score. As for ATACAATA, the binding signal was 0.327 E-score. The result for CACGGTAC reads 0.0962 E-score. Sequence GCGATCGA had a binding signal of 0.0939 E-score.

In turn, ATAAGAAG registered a binding signal of 0.0784 E-score. On to GTAAAGGA, for which the binding signal was -0.146 E-score. The result for CATGTCTA reads -0.0685 E-score. The result for AGGATACG reads 0.0782 E-score. In turn, ACTGCACT displayed a binding signal of -0.0818 E-score.

CGCCCACC: the binding signal was -0.372 E-score. CAGCGAAG gave a binding signal of -0.168 E-score. CAACCTCG gave a binding signal of -0.0668 E-score. For CCACGAAG, the binding signal was -0.214 E-score. The result for AGTTCTCA reads -0.0628 E-score. With CGCAGCTA, the binding signal was -0.0864 E-score.

Turning to CAATGCAA, the binding signal is -0.00697 E-score. The result for GATGCATA reads 0.176 E-score; that for CTTTTGGA, -0.152 E-score. The result for CGAGAGAC reads -0.146 E-score. Sequence GTTGAGCA gave a binding signal of -0.0745 E-score. The result for AGTACACT reads 0.185 E-score; that for CTAGTCGC, 0.0993 E-score; that for GAAGTAGA, 0.24 E-score. The result for CAACTTGC reads 0.0202 E-score; that for CGGGGCAC, -0.178 E-score.

The sequence ACTTCCAC displayed a binding signal of -0.0227 E-score. As for GAGCTTCA, the binding signal is -0.178 E-score. Under GCGAGACC stands -0.114 E-score; under CCGTGTGA, -0.245 E-score; under GGAGGGCA, -0.392 E-score. GGCCTATA showed a binding signal of 0.0686 E-score.

Regarding GAGCAACA, the binding signal is -0.00379 E-score. As for ACACAAGG, the binding signal was -0.241 E-score. Under GTAGTAAC stands 0.307 E-score; under ACGATCAG, -0.178 E-score. The result for TATATCCA reads 0.316 E-score; that for ATATGACG, 0.0156 E-score; that for CTACGCCA, 0.0114 E-score. The sequence AAGATAGC registered a binding signal of 0.193 E-score. The result for GAACAATA reads 0.109 E-score; that for AACGAAAC, 0.12 E-score.

Regarding AGCTTTGA, the binding signal was determined as 0.0387 E-score.

On to CAGCTATA, for which the binding signal amounted to 0.211 E-score.

For CCCCATTA, the binding signal was -0.128 E-score. Under GAATACAA stands 0.306 E-score; under CCCATTCG, -0.145 E-score.

As to ACCTACGC, the binding signal was -0.0344 E-score. As for CATGGCGA, the binding signal is -0.0793 E-score. The result for AAGCACTG reads -0.256 E-score.

The sequence GTGTCGAA came in with a binding signal of 0.0527 E-score. The result for GCTACGTA reads 0.241 E-score. For the sequence ATTTAACC, the binding signal is 0.239 E-score.

ATACCCTC registered a binding signal of -0.00407 E-score. With CCCTATCG, the binding signal amounted to 0.13 E-score. AACGCAGG: the binding signal is -0.188 E-score. The result for CGCGCCAC reads -0.23 E-score; that for ACTAACGA, 0.101 E-score. As to CTCCTTTC, the binding signal is -0.151 E-score. Under CCCCAAAA stands -0.239 E-score; under AGCTTACA, -0.133 E-score; under ACCAACAT, 0.157 E-score. Consider AACGATTA, for which the binding signal is -0.0994 E-score. Take GGGCACCA: the binding signal is -0.27 E-score. Under TACAAGAA stands 0.0958 E-score; under ATGATCCC, -0.0142 E-score; under AGAGCAGG, -0.101 E-score. For GTATAAGA, the binding signal was found to be 0.2 E-score.

These data come from paper PMC6212790.
